The assay relates to primary human hepatic stellate cells (donor 1). As to the kind of experiment: scaled lipid accumulation score (0 = DMSO-like, 1 = nortriptyline-like); higher = stronger HSC inactivation (lipid re-accumulation), active = hit call of the paper. The following applies: 48 h.
Where [1] appears, read: library stock concentration: 3.33 mM.
Where [2] appears, read: library stock concentration: 10 mM.
The mark [3] stands for this setting: library stock concentration: 80 uM.
[4] abbreviates: library stock concentration: 400 uM.
Where [5] appears, read: library stock concentration: 2 mM.
[6] abbreviates: library stock concentration: 1 mM.

We go through 39 compounds from the supplement of paper PMC9135407.

Structures are written as SMILES. Several values for one entry are separate records, joined by “and”; a condition that tells them apart may be missing. Equal values may be shown once. Where a name gives a salt, the structure may show the parent alone. Hit rate of the full screen: of about 5,800 compounds, about 620 (11%) showed activity.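 Rule for the calls: active = score above a cut-off or among the top three wells of a plate; in these data no inactive exceeds 0.85.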 The entries are a selection whose mix differs from that of the whole data set.

On to `CC(C)Cn1cnc2c(N)nc3ccccc3c21` [Imiquimod], for which the “scaled lipid accumulation score” value (library stock concentration: 8.3 mM) is inactive: ≤ 0. As for `O=C(O)C=Cc1cc(Br)c(Br)c(Br)c1Br` [Casein Kinase II Inhibitor III, TBCA], under setting [1], the “scaled lipid accumulation score” value is inactive: ≤ 0.

Take `CC(=O)OCC(=O)[C@@]1(O)[C@H](OC(C)=O)C[C@H]2[C@@H]3CCC4=CC(=O)C=C[C@]4(C)[C@@]3(F)[C@@H](O)C[C@@]21C` [Triamcinolone diacetate]: the “scaled lipid accumulation score” value under setting [2] is inactive: ≤ 0. As to `O=C1Nc2ccc(I)cc2/C1=C/c1cc(Br)c(O)c(Br)c1`, the “scaled lipid accumulation score” value runs as follows: under setting [3], inactive: ≤ 0; under setting [4], inactive: ≤ 0; under setting [5], inactive: 0.042; (library stock concentration: 9.6 mM) inactive: 0.046; under setting [2], inactive: 0.225 and inactive: ≤ 0 and inactive: ≤ -0.006. Regarding `O=C1N=C(O)NC1(c1ccccc1)c1ccccc1` [Phenytoin sodium], the “scaled lipid accumulation score” value is inactive: ≤ 0 under setting [1]; inactive: ≤ -0.001 (library stock concentration: 7.3 mM); inactive: ≤ 0 and inactive: 0.012 under setting [2].

Consider `O=c1onc2cnc3ccccc3n12`, for which the “scaled lipid accumulation score” value under setting [2] is active: 1.01. As for `CN(C)CCC=C1c2ccccc2C=Cc2ccccc21.Cl` [Cyclobenzaprine HCl], the “scaled lipid accumulation score” value under setting [1] is active: 0.507. On to `COc1cc(NS(=O)(=O)c2ccc(N)cc2)nc(OC)n1` [Sulfadimethoxine], for which the “scaled lipid accumulation score” value was inactive: 0.008. Besides, where the note is “library stock concentration: 6.4 mM”, the “scaled lipid accumulation score” value is inactive: ≤ 0. The “scaled lipid accumulation score” value under setting [2] was inactive: ≤ 0. For the compound `COc1cc(NS(=O)(=O)c2ccc(N)cc2)nc(OC)n1` [Sulphadimethoxine], the “scaled lipid accumulation score” value reads like this: under setting [1], inactive: ≤ 0; under setting [2], inactive: ≤ 0.

Take `CC[N+](CC)(CC(=O)Nc1c(C)cccc1C)Cc1ccccc1` [Denatonium benzoate]: the “scaled lipid accumulation score” value was inactive: ≤ 0. Also, the “scaled lipid accumulation score” value (library stock concentration: 4.5 mM) was inactive: ≤ 0.

For `CC1(C)O[C@@H]2[C@@H](CO[C@@]3(COS(N)(=O)=O)OC(C)(C)O[C@@H]23)O1`, under setting [2], the “scaled lipid accumulation score” value was inactive: ≤ 0. `CC1(C)O[C@@H]2[C@@H](CO[C@@]3(COS(N)(=O)=O)OC(C)(C)O[C@@H]23)O1` [Topiramate]: the “scaled lipid accumulation score” value is inactive: 0.132 under setting [1]; inactive: ≤ 0 (library stock concentration: 5.9 mM); inactive: ≤ 0 and inactive: ≤ -0.027 and inactive: 0.005 under setting [2].

On to `COc1cc2ccc(=O)oc2cc1O` [Scopoletin], for which the “scaled lipid accumulation score” value is inactive: ≤ 0. Further, the “scaled lipid accumulation score” value under setting [2] was inactive: ≤ 0. `NCCC(=O)NCCc1c[nH]cn1` [Carcinine]: the “scaled lipid accumulation score” value was inactive: 0.074. Regarding `CN(C)c1cc(NC(=O)CNC(C)(C)C)c(O)c2c1C[C@H]1C[C@H]3[C@H](N(C)C)C(O)=C(C(N)=O)C(=O)[C@@]3(O)C(O)=C1C2=O`, the “scaled lipid accumulation score” value under setting [2] was inactive: ≤ 0. Take `CCNc1nc(Nc2cc(F)c(C(=O)N3CCOCC3)cc2OC)ncc1C(F)(F)F`: the “scaled lipid accumulation score” value runs as follows: under setting [3], inactive: ≤ -0.001; under setting [4], inactive: ≤ -0.001; under setting [5], inactive: ≤ -0.001; under setting [1], inactive: ≤ -0.009; under setting [2], inactive: ≤ 0 and inactive: ≤ -0.001. Regarding `Cc1cccc(Nc2ccncc2S(=O)(=O)NC(=O)NC(C)C)c1`, where the note is “library stock concentration: 9.9 mM”, the “scaled lipid accumulation score” value is inactive: ≤ 0. For `Cc1cccc(Nc2ccncc2S(=O)(=O)NC(=O)NC(C)C)c1` [Torsemide], the “scaled lipid accumulation score” value is inactive: ≤ 0. The “scaled lipid accumulation score” value under setting [2] is inactive: ≤ -0.027.

For `COc1cc2c(cc1OC)-c1c/c(=N\c3c(C)cc(C)cc3C)n(C)c(=O)n1CC2` [Trequinsin], the “scaled lipid accumulation score” value is inactive: 0.164 (library stock concentration: 4.9 mM) and inactive: 0.244 (library stock concentration: 12.3 mM). On to `COc1cc2c(cc1OC)-c1c/c(=N\c3c(C)cc(C)cc3C)n(C)c(=O)n1CC2` [Trequinsin hydrochloride], for which the “scaled lipid accumulation score” value under setting [2] was inactive: 0.494 and inactive: 0.174. For the compound `O=C(O)CCCC[C@@H]1CCSS1` [Thioctic acid], under setting [2], the “scaled lipid accumulation score” value is inactive: ≤ -0.027. In the case of `COc1ccc(-c2nc3cc(F)ccc3s2)cc1OC`, the “scaled lipid accumulation score” value under setting [6] is inactive: ≤ 0. As to `CC(C)CCOc1ccc(NC(=S)Nc2ccc(OCCC(C)C)cc2)cc1` [Thiocarlide], the “scaled lipid accumulation score” value under setting [6] was inactive: ≤ 0.

For `Cc1ccc(Cl)cc1N(CC(=O)Nc1c(F)cccc1F)S(C)(=O)=O`, the “scaled lipid accumulation score” value is, setting by setting: under setting [1], inactive: ≤ -0.007; under setting [2], inactive: 0.137. `CCCCCCCCCCCCCC(=O)OCC` [Myristic Acid ethyl ester]: under setting [6], the “scaled lipid accumulation score” value is inactive: 0.028. Regarding `CNCCCN1c2ccccc2CCc2ccccc21.Cl`, the “scaled lipid accumulation score” value under setting [2] is active: 0.969.

Consider `O=C1c2ccccc2-c2n[nH]c3cccc1c23`, for which the “scaled lipid accumulation score” value under setting [3] is inactive: 0.129; the “scaled lipid accumulation score” value under setting [4] is inactive: 0.086; the “scaled lipid accumulation score” value under setting [5] was inactive: 0.004; the “scaled lipid accumulation score” value under setting [1] is inactive: ≤ 0; the “scaled lipid accumulation score” value under setting [2] was inactive: ≤ 0 and inactive: ≤ -0.07 and inactive: ≤ -0.009. As to `O=C1c2ccccc2-c2n[nH]c3cccc1c23` [JNK Inhibitor II], the “scaled lipid accumulation score” value under setting [1] was inactive: ≤ 0.

For the compound `O=C(c1ccc(OCCN2CCCCC2)cc1)c1c(-c2ccc(O)cc2)sc2cc(O)ccc12`, the “scaled lipid accumulation score” value under setting [2] is inactive: 0.798. For `O=C(c1ccc(OCCN2CCCCC2)cc1)c1c(-c2ccc(O)cc2)sc2cc(O)ccc12` [Raloxifene hydrochloride], the “scaled lipid accumulation score” value was inactive: 0.032. Under setting [2], the “scaled lipid accumulation score” value is inactive: 0.661 and inactive: 0.376. Consider `O=C(c1ccc(OCCN2CCCCC2)cc1)c1c(-c2ccc(O)cc2)sc2cc(O)ccc12` [Raloxifene HCl], for which the “scaled lipid accumulation score” value reads like this: under setting [1], inactive: ≤ 0; under setting [2], inactive: 0.575. For the compound `CC(C)[C@H](CO)Nc1nc(Nc2cc(N)cc(Cl)c2)c2ncn(C(C)C)c2n1` [Aminopurvalanol A], the “scaled lipid accumulation score” value is inactive: 0.02 under setting [1] and inactive: 0.034 under setting [2]. The like results for `CNC(=O)c1ccc(N2C(=S)N(c3cnc(C#N)c(C(F)(F)F)c3)C(=O)C23CCC3)cc1F` were, in that order, inactive: ≤ 0 and inactive: ≤ 0.

As for `CCO/C(O)=C1\C(COCCN)=NC(C)=C(C(=O)OC)C1c1ccccc1Cl` (configuration not stated), the “scaled lipid accumulation score” value under setting [2] was active: 1.38. As for `CCOc1nc(NC(=O)Cc2cc(OC)ccc2OC)cc(N)c1C#N` [JNK Inhibitor VIII], the “scaled lipid accumulation score” value under setting [1] was inactive: ≤ 0. As for `CCCCC[C@H](O)/C=C/[C@@H]1[C@@H](C/C=C\CCCC(=O)O)[C@H](O)C[C@H]1O` [Prostaglandin F2.beta. (tromethamine salt)], under setting [6], the “scaled lipid accumulation score” value is inactive: ≤ 0. Same read-out and setting: the figure for `CCCCC[C@H](O)/C=C/[C@@H]1[C@@H](C/C=C\CCCC(=O)O)[C@H](O)C[C@H]1O` [9b,11a-Prostaglandin F2] is inactive: ≤ -0.021; for `CCCCC[C@H](O)/C=C/[C@@H]1[C@@H](C/C=C\CCCC(=O)O)[C@H](O)C[C@H]1O` [Prostaglandin F2.beta.] it is inactive: ≤ 0.

Consider `CC(C)(NS(=O)(=O)c1ccc(Oc2ccc(F)cc2)cc1)C(=O)NO`, for which the “scaled lipid accumulation score” value under setting [2] was inactive: 0.223.
